# Measurements from PMC4336329 (PLoS ONE, 2015).
# Among all 310,000 compounds or so, about 2,200 (0.71%) showed an effect of 50% or more. Effects have a minus sign here. The list shows a part of the results.
# Target: human ether-à-go-go-related gene (hERG) potassium channel (human, UniProt Q12809)
# Assay: primary screen, population patch clamp on CHO cells stably expressing hERG
# Chain of human ether-à-go-go-related gene (hERG) potassium channel (Q12809 whole entry, looked up): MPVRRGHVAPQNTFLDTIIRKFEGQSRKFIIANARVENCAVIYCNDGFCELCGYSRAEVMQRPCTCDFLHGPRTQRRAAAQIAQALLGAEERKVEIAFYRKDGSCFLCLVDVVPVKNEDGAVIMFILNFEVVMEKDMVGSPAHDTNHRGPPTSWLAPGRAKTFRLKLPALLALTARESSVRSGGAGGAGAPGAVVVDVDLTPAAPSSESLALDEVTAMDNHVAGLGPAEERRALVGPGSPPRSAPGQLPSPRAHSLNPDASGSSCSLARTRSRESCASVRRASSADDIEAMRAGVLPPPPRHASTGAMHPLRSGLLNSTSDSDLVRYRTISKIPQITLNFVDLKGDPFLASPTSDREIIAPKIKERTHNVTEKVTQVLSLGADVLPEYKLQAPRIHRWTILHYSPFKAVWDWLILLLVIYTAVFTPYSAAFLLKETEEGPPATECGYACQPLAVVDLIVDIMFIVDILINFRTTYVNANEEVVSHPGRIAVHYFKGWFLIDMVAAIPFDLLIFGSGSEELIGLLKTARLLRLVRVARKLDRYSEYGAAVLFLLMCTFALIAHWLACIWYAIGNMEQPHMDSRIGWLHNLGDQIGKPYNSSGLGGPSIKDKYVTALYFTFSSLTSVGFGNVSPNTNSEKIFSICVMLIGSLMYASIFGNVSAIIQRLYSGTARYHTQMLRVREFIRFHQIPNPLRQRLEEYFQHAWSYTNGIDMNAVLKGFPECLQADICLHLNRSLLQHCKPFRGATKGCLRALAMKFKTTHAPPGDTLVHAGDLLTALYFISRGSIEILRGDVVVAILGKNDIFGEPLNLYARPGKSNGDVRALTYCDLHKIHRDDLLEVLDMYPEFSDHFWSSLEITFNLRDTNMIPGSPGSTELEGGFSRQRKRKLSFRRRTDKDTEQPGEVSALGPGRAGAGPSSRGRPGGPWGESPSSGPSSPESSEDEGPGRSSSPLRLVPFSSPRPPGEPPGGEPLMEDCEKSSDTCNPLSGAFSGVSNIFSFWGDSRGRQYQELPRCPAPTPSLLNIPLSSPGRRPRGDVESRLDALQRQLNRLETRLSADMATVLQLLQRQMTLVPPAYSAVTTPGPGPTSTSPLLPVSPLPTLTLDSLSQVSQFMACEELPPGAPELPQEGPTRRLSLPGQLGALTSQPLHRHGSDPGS
row,Compound,"hERG current change (%, negative = inhibition) at 1uM [%]"
1,NS(=O)(=O)c1ccc(CNC(=O)CC23CC4CC(CC(C4)C2)C3)cc1,-2.4
2,COc1cc(C(=O)n2nc(C)cc2C)ccc1O,0.889
3,Cc1cc(O)c(C(C)C)cc1N=Nc1ccccc1C(=O)O,3.07
4,Cc1ccc(CC(=O)N/N=C/c2ccc(OC(=O)c3ccc([N+](=O)[O-])cc3)cc2)cc1,13
5,N#Cc1c(N)sc2c1CCN(C(=O)OCc1ccccc1)C2,8.19
6,Cc1cccc(NC(=O)c2ccc(S(=O)(=O)NCc3cccnc3)cc2)c1C,8.4
7,COC(=O)C1=CN(CC2CCCO2)C=C(C(=O)OC)C1c1ccsc1 (stereo not shown),3.52
8,CCOc1ccc(C2c3[nH]c4ccccc4c3CCN2Cc2cn(CC)nc2C)cc1 (stereo not shown),-13.1
9,COC(=O)c1cccc(NC(=O)CCSc2ccc(Cl)cc2)c1C,13.8
10,Nc1nc(Cn2nnc(-c3ccccc3F)n2)nc(N2CCOCC2)n1,-53.8
11,CC1(CCc2ccc3c(c2)OCO3)NCCc2c1[nH]c1ccccc21.Cl (stereo not shown),-10.8
12,CC(C)Sc1nnc(NC(=O)c2ccco2)s1,-4.29
13,Cc1cc(C)cc(OCC(=O)Nc2nc3ccc([N+](=O)[O-])cc3s2)c1,11.2
14,NC1=NC(=Nc2cccc(Cl)c2)c2ccccc21,14.4
15,COC(=O)c1c(NC(=O)CN2C(=O)C(=O)N(C(C)C)C2=O)sc(C)c1C,11.6
16,CC(C)(C)n1nc2c(c1NC(=O)COc1ccc3ccccc3c1)CS(=O)C2 (stereo not shown),14.7
17,COc1ccccc1NC(=O)/C=C/C(N)=O,13.2
18,CSC1=NC(C(Cl)(Cl)Cl)N=C(c2ccccc2)N1 (stereo not shown),10.3
19,CCOC(=O)CSc1nnc(C)c(=O)[nH]1,14.3
20,CCCCCC(=O)Nc1cccc(S(=O)(=O)NC2=NCCCCC2)c1,1.44
21,Nc1c(C(=O)Nc2ccccc2)sc2nc3c(c(-c4ccco4)c12)CCC3,13
22,COc1ccc(CCNC(=O)CSc2nnc3c(n2)[nH]c2ccc(F)cc23)cc1OC,5.3

row,Compound,"hERG current change (%, negative = inhibition) at 1uM [%]"
1,CCn1c(C)c(C(C)=O)c(N2CCC(C(N)=O)CC2)nc1=S,13.2
2,COc1ccccc1N1CCN(C2CCCN(C(=O)CCn3cncn3)C2)CC1 (stereo not shown),7.68
3,CC(C)(C)c1ccc(C(=O)Oc2ccc3c(c2)OCC3=O)cc1,7.97
4,Cc1cc(O)c(S(=O)(=O)c2ccccc2)c(C)c1NS(=O)(=O)c1ccccc1,5.39
5,O=C1COc2ccc(S(=O)(=O)N3CCC(C(=O)NCc4ccc(F)cc4)CC3)cc2N1,14.7
6,CCOc1ccc(Cl)cc1CNCCc1ccccc1F.Cl,3.82
7,NC(=O)[C@@H]1CCCN1C(=O)c1cc(COc2ccc(F)cc2F)on1,19
8,CCN1CCc2nc(NC(=O)C(c3ccccc3)c3ccccc3)sc2C1,3.73
9,Nc1ncccc1OCc1cccc(C(F)(F)F)c1,0.817
10,CC(=O)c1cn(Cc2ccccc2)c(=O)[nH]c1=O,6.88
11,CCCCCc1ccc(-c2cn(CCCOCc3ccccc3)nn2)cc1,7.45
12,CCOC(=O)C1=C(C)SC2=NS(=O)(=O)CCN21,14.7
13,O=C1NCCCC1C(=O)Nc1ccccc1C(F)(F)F (stereo not shown),3.93
14,CC(=O)Nc1ccc([As](=O)(O)c2ccc([N+](=O)[O-])cc2)cc1,-0.171
15,O=C(Nc1cc2c3c(c1)CC(=O)N3CCC2)c1cccc(F)c1,0.498
16,Cc1nn(CC(=O)N2CCN(C)CC2)c(=O)c2c1sc1ccccc12,4.18
17,CCOc1ccc2c(C)c(Cl)c(=O)oc2c1,6.1
18,Cc1cnc(C(=O)NCc2ccc(F)cc2)cn1,14.1
19,CC(C)c1c(C(=O)N/N=C/c2ccoc2)nnn1-c1nonc1N,8.01
20,O=C(NC1CCCC1)C(c1cccnc1)N(C(=O)c1csnn1)c1ccc(F)cc1 (stereo not shown),0.77
21,Nn1c(SCC(=O)N2CCc3ccccc3C2)nnc1-c1cccs1,-2.06
22,CCOC(=O)C(=CNc1cc(C)ccc1C)C(=O)OCC,7.01

row,Compound,"hERG current change (%, negative = inhibition) at 1uM [%]"
1,CC(=O)c1cc2c(cc1NC(=O)CCNC(=O)c1ccccc1Cl)OCO2,4.36
2,CC(C)OCCCNC(=O)c1ccc(NC(=O)C2=CSCCO2)cc1,10.2
3,COc1cc(/C=C2\CCC/C(=C\c3ccc(O)c(OC)c3)C2=O)ccc1O,13
4,CCCCOC(=O)c1ccc(NC(=O)CSc2nncn2C)cc1,7.9
5,O=C(NCc1ccc(N2CCCC2=O)cc1)Nc1ccccc1,14.8
6,CCN1CCN(c2nc(S(=O)(=O)c3ccc(C)cc3)c(Cl)s2)CC1.Cl,1.63
7,COc1ccc(C(=O)NC2CC(C)(C)Cc3c2cnn3-c2ccccc2C)o1 (stereo not shown),-13.7
8,COC(=O)c1c(NC(=O)COc2ccc(Cl)cc2)sc2c1CC(C)(C)NC2(C)C,8.23
9,CCn1ccnc1CN(C)C(=O)c1ccc2nc(Cc3ccc(OC)cc3)oc2c1,8.7
10,O=C(O)c1cccnc1SC1CC(=O)N(c2cccc(C(F)(F)F)c2)C1=O (stereo not shown),9.75
11,O=C(Oc1ccccc1/C=C\C(=O)c1cc2ccccc2o1)c1ccccc1,9.81
12,COC(=O)c1scc(S(=O)(=O)c2ccccc2)c1N,18.3
13,COc1cccc(-c2nc(CS(=O)(=O)CC(=O)NCc3ccccc3)c(C)o2)c1,3.5
14,O=C(CC(c1ccccc1)c1ccccc1)OCn1nnc2ccccc2c1=O,11.7
15,O=C(Nc1ncccn1)c1cc(-c2ccc(F)cc2)nc2ccccc12,-1.76
16,CCn1c(Cc2ccccc2)nnc1SCC(=O)NC(C)(C)C,-3.93
17,Cc1ccc(NC(=O)CCCNC(=O)c2ccc(Cl)cc2)c(Br)c1,13.7
18,CCC1CCCCN1CCCNC(=O)c1ccc2c(=O)n(CCOC)c(=O)[nH]c2c1 (stereo not shown),13.3
19,CCOC(=O)C1=C(CCc2ccccc2)NC(=O)NC1c1ccc2ccccc2c1 (stereo not shown),10.6
20,CCN1C(=O)[C@@H]2[C@@H](c3ccc(-c4ccc(Cl)c(Cl)c4)c(OC)c3)N3CCC[C@@]3(C(=O)OC)[C@@H]2C1=O.O=C(O)C(F)(F)F,13
21,COc1ccc(OCC(O)CNS(=O)(=O)c2cccs2)cc1 (stereo not shown),14.5
22,COc1ccc(/C=N/NC(=S)NC2CCS(=O)(=O)C2)cc1 (stereo not shown),15.8

row,Compound,"hERG current change (%, negative = inhibition) at 1uM [%]"
1,O=Cc1c(NCCc2ccc(F)cc2)c2ccccc2[nH]c1=O,4.06
2,C=CCn1c(SCC(=O)Nc2cc(C)on2)nnc1C1COc2ccccc2O1 (stereo not shown),-2.58
3,COc1ccc(-c2cc(C(=O)N(C)Cc3ccccc3)c3ccccc3n2)cc1,12.9
4,CN(C)CCCNC(=O)CCc1ncc(C(F)(F)F)cc1Cl,12.4
5,COc1ccc(C(=O)NCc2nnc(SCC(=O)NCc3ccco3)o2)cc1OC,14.2
6,c1ccc(C2=NC(c3ccccc3)N=C(c3ccccc3)N2)cc1,2.44
7,Cc1c(NC(=O)C(C)OC(=O)Cc2ccc(F)cc2)c(=O)n(-c2ccccc2)n1C (stereo not shown),11.8
8,Cc1ccc(SCCNC(=O)c2ccc(C)c(S(=O)(=O)Nc3cccc(C)c3)c2)cc1,20
9,O=C(CSC1=NCCS1)Nc1ccc2ccccc2c1,3.16
10,CCCC(=O)NC(c1ccc(OC)cc1)c1ccc2cccnc2c1O (stereo not shown),12.7
11,O=C(CSc1nnc(Cc2ccccc2)n1-c1ccccc1)NNC(=O)Cc1ccccc1,2.24
12,CCOc1ccc2nc(SCC(=O)NNC(=O)c3ccco3)c(C)cc2c1,7.83
13,COc1cnn(Cc2ccccc2)c(=O)c1SCc1ccccc1,-2
14,Cc1cc(/C=N/n2cnnc2)c(C)n1-c1ccccc1,8.97
15,COc1ccc(NS(=O)(=O)c2cc(NC(=O)c3nc4nc(C)cc(C)n4n3)ccc2C)cc1,7.39
16,CC(C)C(NC(=O)Nc1ccccc1)C(=O)Nc1cccc(S(=O)(=O)N(C)C)c1 (stereo not shown),15.9
17,COc1ccc(-n2nnnc2SCC(=O)c2ccc3c(c2)OCCO3)cc1,12.9
18,Cc1c(NC(=O)CSc2nc3ccccc3[nH]2)c(=O)n(-c2ccccc2)n1C,-9.76
19,COC(=O)c1ccc(COC(=O)C(CCSC)NC(=O)COc2ccccc2)cc1 (stereo not shown),10.8
20,Cc1ccc(CCNC(=O)C2CCN(S(=O)(=O)N3CCOCC3)CC2)cc1,13.7
21,C=CCN(C(=O)OC(C)(C)C)S(=O)(=O)NCc1ccccc1,11.9
22,CC1CCN(C(=O)CCN2C(=O)C3C4C=CC(C4)C3C2=O)CC1 (stereo not shown),12.7
